In PMC4336329 (PLoS ONE, 2015):
Screen size: about 310,000 compounds; about 14,000 (4.5%) showed an effect of 50% or more. Effects have a minus sign here. This is one part of the list.

target: human ether-à-go-go-related gene (hERG) potassium channel (human, UniProt Q12809); experiment: primary screen, population patch clamp on CHO cells stably expressing hERG
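Note: peak tail current of the secondary pulse compared with the same well before compound.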

human ether-à-go-go-related gene (hERG) potassium channel, sequence (Q12809 whole entry, looked up): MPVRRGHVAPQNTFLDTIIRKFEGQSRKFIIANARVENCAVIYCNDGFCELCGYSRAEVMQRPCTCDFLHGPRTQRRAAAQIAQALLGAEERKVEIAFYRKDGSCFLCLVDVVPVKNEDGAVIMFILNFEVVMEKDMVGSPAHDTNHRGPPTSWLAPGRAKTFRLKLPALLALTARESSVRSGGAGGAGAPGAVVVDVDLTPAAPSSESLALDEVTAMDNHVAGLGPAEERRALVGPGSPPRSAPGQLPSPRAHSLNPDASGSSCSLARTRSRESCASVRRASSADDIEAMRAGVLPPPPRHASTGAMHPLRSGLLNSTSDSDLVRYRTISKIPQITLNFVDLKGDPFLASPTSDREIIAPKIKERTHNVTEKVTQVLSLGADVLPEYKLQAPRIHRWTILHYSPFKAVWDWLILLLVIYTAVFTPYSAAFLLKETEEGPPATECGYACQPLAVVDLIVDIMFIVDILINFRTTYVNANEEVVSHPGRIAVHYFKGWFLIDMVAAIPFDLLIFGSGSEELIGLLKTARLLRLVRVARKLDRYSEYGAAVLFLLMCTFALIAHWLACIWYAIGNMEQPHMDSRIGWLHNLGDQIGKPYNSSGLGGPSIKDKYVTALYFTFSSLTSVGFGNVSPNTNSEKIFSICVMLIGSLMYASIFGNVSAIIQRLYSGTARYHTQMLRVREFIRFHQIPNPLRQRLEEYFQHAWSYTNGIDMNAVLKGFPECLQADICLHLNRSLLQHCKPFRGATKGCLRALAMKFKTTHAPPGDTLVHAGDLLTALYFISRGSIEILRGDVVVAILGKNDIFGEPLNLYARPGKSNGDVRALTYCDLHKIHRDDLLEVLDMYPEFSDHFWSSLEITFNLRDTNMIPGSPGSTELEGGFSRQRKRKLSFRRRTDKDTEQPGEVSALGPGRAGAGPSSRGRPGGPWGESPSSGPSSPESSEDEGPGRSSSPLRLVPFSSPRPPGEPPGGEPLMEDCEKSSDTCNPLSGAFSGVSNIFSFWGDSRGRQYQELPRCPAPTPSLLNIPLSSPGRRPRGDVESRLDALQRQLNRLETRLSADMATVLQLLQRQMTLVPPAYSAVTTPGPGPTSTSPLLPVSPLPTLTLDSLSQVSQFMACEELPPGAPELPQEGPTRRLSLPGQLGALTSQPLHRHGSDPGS

Row | SMILES | hERG current change (%, negative = inhibition) at 10uM [%]
1 | CCCN(CC(=O)Nc1ccc(F)c(F)c1F)CC(=O)Nc1c(C)n(C)n(-c2ccccc2)c1=O | 0.486
2 | CC1CCCN(C(=O)CNC(=O)Cn2ccc3ccccc3c2=O)C1 (centres unmarked) | -5.78
3 | Cc1ccc(C(=O)N2CCN(c3ccc(NC(=S)NC(=O)c4cccs4)cc3)CC2)cc1 | -9.1
4 | CCN1CCN(c2ccc(S(=O)(=O)N3CCOCC3)cc2NC(=O)c2ccccc2SC)CC1 | -60.1
5 | O=C(c1ccc(F)cc1)N(c1ccccn1)C1CCCCC1 | 8.08
6 | Cc1ccc(S(=O)(=O)Nc2cccc(-n3cnnn3)c2)cc1C(=O)O | 3.97
7 | CCOc1cc(Cl)c(S(=O)(=O)NCCCN2CCOCC2)cc1Cl | -48.6
8 | O=C1C2C3C=CC(C3)C2C(=O)N1Nc1ccccc1 (centres unmarked) | 11.3
9 | CC1(C)Nc2ccc(O)cc2-c2c1ssc2=S | -2.85
10 | COc1cc(NC(=O)c2c(F)cccc2F)nc(OC)n1 | 2.47
11 | Cc1csc(N(C)C(=O)CSc2nnc(COc3ccccc3C)o2)n1 | -6.82
12 | Cn1c(=O)c2c(nc(Sc3ncnn3CC(=O)N3CCOCC3)n2C)n(C)c1=O | 8.88
13 | COc1cccc(C2=CC(=O)CC(C)(C)C2)n1 | 4.37
14 | O=C(O)CCCCCNS(=O)(=O)/C=C/c1ccccc1 | 29.5
15 | CCOC(=O)C(Cc1ccc(Cl)cc1Cl)c1ccno1 (centres unmarked) | 14.3
16 | CCn1nnc(NC(=O)COc2ccc(C3CCCCC3)cc2)n1 | -22
17 | CCCC1c2ccsc2CCN1C(=S)NC (centres unmarked) | 4.63
18 | O=S(=O)(NCCc1cn2ccccc2n1)c1ccc(-c2ccccc2)cc1 | -62
19 | COc1cc(Cl)ccc1OCc1cc(C(=O)N(C)CC2CCCCO2)no1 (centres unmarked) | -18.7
20 | O=S(=O)(NCC(c1cccnc1)N1CCN(c2ccc(F)cc2)CC1)c1ccc(F)cc1 (centres unmarked) | -69
21 | NC(=O)c1cc([N+](=O)[O-])ccc1NCc1cccnc1 | -20
22 | Cc1ccccc1NC(=O)CCc1c(C)nn(-c2ccc(N3CCOCC3)nn2)c1C | -1.3

Row | SMILES | hERG current change (%, negative = inhibition) at 10uM [%]
23 | CCOC(=O)c1csc(COc2ccccc2Cl)n1 | -38.5
24 | CC1=C(C(=O)OCC(C)C)C2(O)C(=O)c3ccccc3C2(O)N1 (centres unmarked) | 3.4
25 | COCc1nnc(NC(=O)c2ccc(S(=O)(=O)N3CCOCC3)cc2)o1 | 10.9
26 | CCN(CC)CCNC(=O)c1cn(CC)c2ccc(S(=O)(=O)N3CCc4ccccc4C3)cc2c1=O | -59.4
27 | O=C(Nc1ccc(F)cc1F)c1ccc2ncsc2c1 | 4.79
28 | COc1ccc(-c2csc3ncnc(N4CCN(c5ccccc5[N+](=O)[O-])CC4)c23)cc1 | 14.8
29 | Cc1nnc(N2C(=O)C(=O)/C(=C(/O)c3ccc4c(c3)OCCO4)C2c2ccc(F)cc2)s1 (centres unmarked) | 20.4
30 | COc1ccc(NC(=O)CCC(=O)c2cccs2)c(OC)c1 | 4.43
31 | COCCOC(=O)C1=C(C)N(c2ccccc2)C(=O)NC1c1cccc([N+](=O)[O-])c1 (centres unmarked) | -12.9
32 | COc1ccc(NC(=O)[C@H](COCc2ccccc2)NC(=O)OC(C)(C)C)cc1 | -7
33 | Cc1onc(-c2c(F)cccc2Cl)c1C(=O)NC1CCCCCC1 | -12.7
34 | OCCC1CN(Cc2cccc3nonc23)CCN1C1CCCCC1 (centres unmarked) | -5.74
35 | COc1ccccc1CC(=O)Nc1ccccc1O | 13
36 | Cc1cccc(C)c1NC(=O)CN1N=NC2C(=O)N(c3cccc(Cl)c3)C(=O)C21 (centres unmarked) | -6.3
37 | N#Cc1c(NC(=O)CCN2C(=O)c3ccccc3C2=O)oc(-c2ccccc2)c1-c1ccccc1 | -11.7
38 | CC(C)n1c(Sc2nccn2C)nc2c1c(=O)n(C)c(=O)n2C | 0.592
39 | CN=c1scc(-c2ccccc2F)n1/N=C(\C)c1cccnc1 | -28.9
40 | COc1ccc(NC(=O)COC(=O)Cc2c(F)cccc2Cl)cc1 | -0.319
41 | CC(NC(=O)CCCC1CCCCC1)c1ccc(S(N)(=O)=O)cc1 (centres unmarked) | 16.4
42 | CC(=O)CSc1nnc(Cc2ccc([N+](=O)[O-])cc2)o1 | 2.42
43 | COc1ccc(NC(=O)COC(=O)c2ccc(-n3cnnn3)cc2)c([N+](=O)[O-])c1 | 6.42
44 | Cc1cc(C=C2C(=O)c3ccccc3C2=O)c(C)n1-c1ccc(C(=O)O)cc1 | 1.68

Row | SMILES | hERG current change (%, negative = inhibition) at 10uM [%]
45 | Cc1ccc(NC(=O)CSc2n[nH]c(-c3ccco3)n2)c(C)c1 | 1.78
46 | CC(=O)N(CCc1ccccc1C)Cc1cc2cc3c(cc2[nH]c1=O)OCO3 | -11.1
47 | CCOC(=O)[C@H]1[C@H]2COc3ccc(Cl)cc3[C@@H]2N2C(=O)c3cc(Br)ccc3NC(=O)[C@@]12C | 4.5
48 | COc1ccc2cc3cc(C(=O)NCCN4CCN(c5ccccc5F)CC4)oc3nc2c1 | -15.8
49 | Cc1ccc(/C=C/C(=O)OCc2nc(N)nc(Nc3ccccc3C)n2)o1 | -21.7
50 | O=C1CCCc2ccccc2N1Cc1c(Cl)cccc1Cl | -18.8
51 | Cc1cccc(-c2nc3ccccc3c3nncn23)c1 | -12.1
52 | CCC(=O)N(CCC(c1ccc(C)cc1)c1ccco1)Cc1ccco1 (centres unmarked) | -18.5
53 | CCOc1ccc(/C=N/NC(=O)c2nnn(-c3nonc3N)c2-c2cccs2)cc1 | 13
54 | CCOC(=O)c1ccc(NC(=S)NCCCN2CCCCC2)cc1 | -42
55 | O=C(Nc1c(C(=O)NCc2ccco2)cnn1-c1ccccc1)c1ccc(F)cc1 | 15.6
56 | CCn1cc(C(=O)NC(=S)Nc2sc3c(c2C(=O)OC)CCCCCC3)cn1 | 17.9
57 | CC(=O)N=c1n(C)c2ccccc2n1CCOc1ccccc1 | 3.65
58 | O=C(Nc1ccccc1C(=O)O)c1cccc(N2C(=O)c3ccccc3C2=O)c1 | 11.9
59 | Cc1ccc(S(=O)(=O)NCC(=O)N(CC(=O)NC2CCCC2)CC2CCCO2)cc1 (centres unmarked) | 10.5
60 | Cc1cc(NS(=O)(=O)c2ccc(NC(=O)COc3ccc(Cl)cc3Cl)cc2)no1 | 1.89
61 | S=C(Nc1ccccc1)Nc1nc2ccccc2n1CCOc1ccc(Br)cc1 | 11.6
62 | Cc1ccc(CNC(=O)CCNS(=O)(=O)c2cccc3nonc23)cc1 | 15.6
63 | CCOc1ccc(/C=N/Nc2ccccc2)cc1 | 17.6
64 | O=[N+]([O-])c1cc(S(=O)(=O)N2CCOCC2)ccc1N1CCCC1 | -6.06
65 | COc1ccccc1Oc1ccc2c(c1)C(=O)N(c1ccc(Br)c3cccnc13)C2=O | -2.37
66 | C=CCN(CC=C)C(=O)C1CC(=O)N(c2ccc(Br)cc2)C1 (centres unmarked) | -59.2

Row | SMILES | hERG current change (%, negative = inhibition) at 10uM [%]
67 | C=CCOC(=O)c1ccc(-n2cncn2)nc1 | -4.47
68 | COc1cccc(NC(=O)CSc2nc3ccccc3c3nc4ccccc4n23)c1 | -7.77
69 | CCCn1c(=O)[nH]c(=O)c2c1nc(-c1cccs1)n2CCOC | -6.05
70 | Cc1ccc(N(CC(=O)NCCSCc2ccco2)S(=O)(=O)c2ccc(C)cc2)cc1 | -69.7
71 | O=C1c2ccccc2C(=O)N1CCSc1n[nH]c(=S)s1 | 18.4
72 | CCOC(=O)Cc1csc(NC(=O)CSc2nc(=O)[nH]c3c2CCCC3)n1 | -0.299
73 | COc1cc(NC(=O)C2CCCN(S(=O)(=O)c3ccc4[nH]c(=O)ccc4c3)C2)cc(OC)c1 (centres unmarked) | 14.5
74 | COc1ccccc1-c1nnc2sc(C3CCCCC3)nn12 | -31.5
75 | COc1cc(-c2nnc(-c3ccco3)o2)ccc1OCc1ccccc1 | -11.1
76 | O=C(C[n+]1cc(Br)cc2ccccc21)c1ccc(Br)cc1.[Br-] | -83.3
77 | CCCc1cc(=O)oc2cc(OC(C)C(=O)NCCCn3ccnc3)ccc12 (centres unmarked) | -42.1
78 | c1ccc2c(c1)NC1(CCCCC1)n1c-2nc2ccccc21 | -4.02
79 | CN(C)S(=O)(=O)c1ccc(C(=O)N2CCC(c3nc4ccccc4o3)CC2)cc1 | -37
80 | O=C(Cc1csc(NC(=O)Nc2cccc(Cl)c2)n1)NCc1ccccn1 | -5.14
81 | CC(=O)N1c2c(cc(Br)cc2S(=O)(=O)NCc2ccc(C)cc2)CC1C (centres unmarked) | -59.5
82 | Cc1cccc(NC(=O)c2cccc(N3C(=O)C4C5C=CC(C6CC56)C4C3=O)c2)c1 (centres unmarked) | -15
83 | O=C(CN1N=C(c2ccc(Cl)cc2)CCC1=O)NCc1cccs1 | -42.3
84 | O=C(Nc1ccnc(-c2cccnc2)n1)c1ccc(F)cc1 | -4.08
85 | O=C(CNCc1ccc(F)cc1)Nc1ccc(C(=O)N2CCCCC2)cc1.O=C(O)C(=O)O | 2.45
86 | CCc1ccc(N2CCN(C(=O)c3ccc4c(c3)OCO4)CC2)cc1 | -50.3
